# From the supplement of paper PMC11417369
# ± gives the standard deviation of the averaged measurements. The list shows a part of the results.
# Tested on: PfAP2-G AP2 domain (GST-tagged)
# Experiment: gcPBM binding intensity (ln(normalized median fluorescence intensity)); higher = stronger DNA binding
# How it was run: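 An Agilent 4 × 180k array carrying primer-extended double-stranded 36-bp intergenic genomic probes and negative controls received GST-tagged P. falciparum DNA-binding domains expressed in E. coli, about 25 μg on average, for 1 h. The binding buffer contained 1× PBS, 1% milk, 0.2 mg/ml BSA, 0.5% salmon testes DNA and 0.03% Triton X-100. Binding intensity is the top Masliner-normalised natural-log median intensity across replicate spots of either probe orientation, read after Alexa488 anti-GST antibody staining and a 488 nm scan.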
row,Sequence,gcPBM binding intensity (ln)
1,AAAAAGAAAAAACTTACACACATATATACAGACATG [CACACA_site550],10.19 ± 0.057
2,TTATAATCCATAATTGCACACAATATATTCATATTT [CACACA_site3916],9.93 ± 0.13
3,AAAAAAAAATAAATAAATATATATAATATTTATGTT [GTGCAC_negctrl_site520],9.39 ± 0.15
4,TGGTTAATATGTGAAAGTACATATTATATTAAAATG [XGTACX_site2636],11.1 ± 0.58
5,TACAGATAATATATTGCACACGTCAGAATAATATAG [CACACA_site5036],10.06 ± 0.049
6,TATAACTTTTTTATTACACACCTATGCAATATTATA [CACACA_site6570],9.96 ± 0.071
7,ATAAAATAAGATCTTTTTTTTTTTTTTTTCTTTTCT [XGTACX_negctrl_site73],9.485 ± 0.078
8,AACAAATAAATAAATAAAAAGCAAATATGTCTATAT [GTGCAC_negctrl_site414],9.71 ± 0.23
9,ACTTATTATTAATATTGTACTCTTGAAAATTGTGGA [XGTACX_site6315],11.3 ± 0.74
10,AATACACAAATATATTGTACATATATATATATATAT [XGTACX_site2440],11 ± 0.69
11,ATATATATTTTTTAAACACACACATAAATATTTGTG [CACACA_site8936],10.35 ± 0.092
12,TATATGTATTTATATACACACATATTCTTTTGACAC [CACACA_site1206],10.2 ± 0.26
13,TATATATATATATGTGCATGTTCCCCATGCTTCCAT [TGCATGCA_site366],10.3 ± 0.3
14,AAAATTATAATAATATGTACTTAAAAAATTTATATA [XGTACX_site632],11.2 ± 0.91
15,TTCTTCAAGGAAAACACATGCGCATTTTCACCAATT [TGCATGCA_site11],10.04 ± 0.049
16,ATATATATATATATATGTACATATGTATATTTTTTT [XGTACX_site1299],10.9 ± 0.44
17,CATACATACAGATATACACACATATATAATAATATA [CACACA_site5477],9.89 ± 0.12
18,CATATTTGCACTTTCACACATAAATATATAACTATA [CACACA_site6016],10.3 ± 0.22
19,TATATATATATATACACACACACACCCATATATATA [CACACA_site2538],10.1 ± 0.2

row,Sequence,gcPBM binding intensity (ln)
1,CTGTATTCATAATTCACACAAATGGTTTATATGAAT [CACACA_site4315],10 ± 0.15
2,TTTAAACAAGGATCCACACACCCCAAAAAAAAAAGA [CACACA_site680],10.5 ± 0.47
3,TTTTTATTTTTGTAGTGTACTTTATTTTTTTTGTTT [XGTACX_site8887],11.6 ± 0.91
4,TAGATTCTTGAATAAGTGCAAAATATAATATTTATT,9.93 ± 0.16
5,AAAAATAAAATAAAATAAAATAAACATACCATATGT [CACACA_negctrl_site594],9.935 ± 0.021
6,CAAAAGTATAATAATACACACACTTTAAAAGTTAAA [CACACA_site3343],10.1 ± 0.13
7,TATATATGTTCAATATGTACATATATATAAGTGTAT [XGTACX_site5157],10.9 ± 0.52
8,AAGAAATATTTATACACACACACAAACATATATATA [CACACA_site1912],9.98 ± 0.16
9,ATATTATTGTAGAAATGTACATATATATATATATAT [XGTACX_site1882],11 ± 0.49
10,TTACAAATGGTTTACACACACATAATTGTATCAATT [CACACA_site4167],10.1 ± 0.14
11,TAATATATGAGAAATTGTACAGAAAGGAATATGCTT [XGTACX_site5300],10.7 ± 0.35
12,TATATATGGTATAATTGTACTAACGCCAACTATACC [XGTACX_site5853],10.9 ± 0.53
13,TAGCTTTTGCCTTTTTTTAAAAAAAAATAAATAAAT [TGCATGCA_negctrl_site242],9.81 ± 0.099
14,TATATATATTTATACACACAAACATAATACTACTTA [CACACA_site2022],10.3 ± 0.22
15,TTTTTTTTTATGTGCACACAAAAGATGCTTATATTT [CACACA_site2348],10.7 ± 0.43
16,TGCATATACATATGTAGTACAATAATTTGAAAAAAA [XGTACX_site5239],11.5 ± 1
17,TTTCCATATATAGAACGTACAAAGATCTTTGTTACT [XGTACX_site8972],11.1 ± 0.61
18,ATACATATATATATGTGTACATATTATATATACATA [XGTACX_site8420],11.3 ± 0.83
19,TTTTGTATTTATGGATGTACATAATATGTTTTAAAC [XGTACX_site3278],11.3 ± 0.69

row,Sequence,gcPBM binding intensity (ln)
1,TATGTATGTATTAATGCGCACACAAAAAATAACAAT [CACACA_site8551],10.8 ± 0.42
2,AAAAATTAAATATAAAGTACAAAATTAAAATCTTAA [XGTACX_site931],10.9 ± 0.62
3,TTATTATTTTATAACACACACATATAGATTATAGCT [CACACA_site6787],9.935 ± 0.064
4,ATATATATATATATAAAGTGAAGTATGAGGGAAATA [XGTACX_negctrl_site497],10.1 ± 0.27
5,ATTTTCTTTTCCATAGTGCAATATAATTATCCATCA [GTGCAC_site9547],10.2 ± 0.11
6,TTTCGTAACTATTTGTGTACATATATATATATATAT [XGTACX_site2920],11.4 ± 0.83
7,ATAAATATATGAAATATACACACTTCTTTGGTATTA [CACACA_site456],9.68 ± 0.18
8,TATTATATATTAAATGCATGTAAAAATAATATTAAA [TGCATGCA_site643],9.94 ± 0.25
9,ATATTATAATAAATGTGTACATATTGTAGAAATATT [XGTACX_site8101],11.4 ± 0.83
10,AATTATTTACCCTATACACACAAAACACGCTAAAAA [CACACA_site1211],10.3 ± 0.28
11,AAAGAGAGTATCTAATGTACGTATGTATGTATATAT [XGTACX_site1780],11.4 ± 0.88
12,ATTTTGTGCGCACACACATGCAAAAAGAAATATGAT [TGCATGCA_site261],10.8 ± 0.46
13,TCTGTAAATACGTGCACACACAAATCACAAATGTGA [CACACA_site330],10.7 ± 0.52
14,TAAATAATTTCACGAATGACAAAGATATAATAAGTT [CACACA_negctrl_site1430],9.93 ± 0.11
15,TAAAGGTGAACAATACGTACATAAGAACTTATGAGG [XGTACX_site4216],11.5 ± 0.91
16,ATCGTGAATAATATCTGTACATATGAACACATATAT [XGTACX_site952],11.1 ± 0.6
17,TATGACCTTAGAAATTGTACAAGAAAAAATGTTACA [XGTACX_site7084],11 ± 0.55
18,ATATAAAATACATGGGTGCAATATATTAAACAAATA [GTGCAC_site9421],10.2 ± 0.11
